Experimental data: PubChem BioAssay AID1346428 (National Center for Advancing Translational Sciences (NCATS), 2018)
The whole screen tested about 48,000 compounds, of which about 1,200 (2.5%) were called active. Inconclusive results (about 2%) are left out.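 The calls were made as follows: active = activation of at least 60% and not above a set upper limit (about 1 call in 100 departs from these limits); inconclusive = activation of 40% to 60%, or above that upper limit; inactive = activation under 40%.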 This is one part of the list.

Biological target: Probable G-protein coupled receptor 32 (Homo sapiens) (UniProt O75388)
UniProt O75388, sequence (O75388 whole entry, looked up): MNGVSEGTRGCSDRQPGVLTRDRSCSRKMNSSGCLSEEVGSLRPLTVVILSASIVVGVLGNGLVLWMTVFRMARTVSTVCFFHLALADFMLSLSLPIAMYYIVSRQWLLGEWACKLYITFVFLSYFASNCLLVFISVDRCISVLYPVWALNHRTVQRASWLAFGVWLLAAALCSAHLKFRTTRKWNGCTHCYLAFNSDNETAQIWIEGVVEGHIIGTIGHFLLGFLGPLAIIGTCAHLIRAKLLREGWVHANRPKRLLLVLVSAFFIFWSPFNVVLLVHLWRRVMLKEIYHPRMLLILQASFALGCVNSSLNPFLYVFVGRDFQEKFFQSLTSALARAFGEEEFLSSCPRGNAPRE
Experiment: qHTS for Agonists of Human Resolvin D1 Receptor DRV1; also: 0% is about no effect
Details: CHO-K1 GPR32 beta-arrestin PathHunter luminescence, 90 min; at 76.9 µM; active compounds read high; zero percent set by DMSO-only wells
Method in brief: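 Cells are plated overnight, treated with compounds in DMSO for 90 minutes at 37 °C, and developed with PathHunter detection reagent for 1 hour before luminescence is read; signal reflects beta-arrestin binding to GPR32 in engineered CHO-K1 cells.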

| SMILES | activation |
| --- | --- |
| Cc1ccsc1CCN1C(=O)N(c2ccccc2)C(=O)C1CC(=O)Nc1ccc(F)cc1 (stereo not given) | inactive: -5.79% |
| COc1ccc(CCC(=O)NCc2ccc3c(c2)CCN3C(=O)c2ccc(F)cc2)cc1 | inactive: -17.6% |
| COc1ccc(-c2nc3cc(NC(=O)Cc4ccc(Cl)cc4)ccc3o2)cc1OC | inactive: 29.8% |
| Cc1ccc(CCNC(=O)CCN2N=C(c3ccc(C)cc3)CCC2=O)cc1 | inactive: -21.2% |
| CCOc1ccc(C(=O)Nc2cc(NC(=O)c3ccco3)ccc2OC)cc1Br | inactive: 9.09% |
| CC(C)CC(=O)Nc1nnc(S(=O)(=O)N2CCCCCC2)s1 | inactive: -2% |
| CCOC(=O)c1ccc(NC(=O)Cn2nc(SC)c(S(=O)(=O)c3ccc(Cl)cc3)c2N)cc1 | active: 69.5% |
| Cc1cccc(C)c1NC(=O)c1ccc2c(c1)N(Cc1cccc(Cl)c1)C(=O)c1ccccc1S2=O (stereo not given) | inactive: -12.5% |
| Cc1ccc(C(=O)N(Cc2sccc2C)C2CCS(=O)(=O)C2)cc1 (stereo not given) | inactive: -10.9% |
| COc1ccccc1NC(=O)N1c2ccccc2Sc2ccccc21 | inactive: -19.2% |
| COc1ccc(OC)c(-n2nnc3c(sc4nc(C)c(Br)c(C)c43)c2=O)c1 | inactive: -2.3% |
| Cc1nc(C)c(-c2ccc(SCC(=O)Nc3ccc(Cl)c(Cl)c3)nn2)s1 | inactive: 36.7% |
| Cc1cccc(N2CCN(C(=O)c3cc4c(=O)oc5ccccc5c4s3)CC2C)c1 (stereo not given) | inactive: 27.6% |
| COc1ccc(CCC(C)=O)cc1 | inactive: -8.68% |
| CC(C)CN(CC(C)C)C(=O)C1CCCN(S(=O)(=O)c2ccc3c(c2)oc(=O)n3C)C1 (stereo not given) | inactive: -1.39% |
| COc1cccc(NC(=O)c2nn(-c3ccc(C)cc3)c(=O)n(C)c2=O)c1 | inactive: -17.2% |
| Cc1cc(C)c2nc(N3CCCC(C(=O)NCc4cccc(Cl)c4)C3)sc2c1 (stereo not given) | inactive: -4.7% |
| COc1ccc(CNS(=O)(=O)c2cc3c(cc2C)n(C)c(=O)c(=O)n3C)cc1 | inactive: -5.53% |
| Cc1ccc(NS(=O)(=O)c2ccc3c(c2)NC(=O)C(C)C(=O)N3)cc1F (stereo not given) | inactive: -7.01% |
| CCc1ccc(CNC(=O)c2ccc3nc(SCc4ccc(F)cc4)n(C)c3c2)cc1 | inactive: 14.2% |
| Cc1ccc(NC(=O)CSc2cc(=O)n(C)c3ccc(Cl)cc23)c(Br)c1 | inactive: -1.51% |
| CC(NC(=O)c1ccc2c(c1)N(Cc1cccc(F)c1)C(=O)c1ccccc1S2)c1ccccc1 (stereo not given) | inactive: -22.7% |

| SMILES | activation |
| --- | --- |
| Cc1ccc(NC(=O)c2cnn(-c3ccc(C)c(C)c3)c2C2CCN(C(=O)OC(C)(C)C)CC2)c(C)c1 | inactive: -28.1% |
| Cc1cccc(NC(=O)Cn2c(=O)n(CCC(C)C)c(=O)c3cccnc32)c1 | inactive: -2.15% |
| CCCCN(C)CCNC(=O)c1c(C)oc2ncnc(N3CCOCC3)c12 | inactive: -13% |
| COc1cc(NC(=O)CN2C(=O)C(c3ccc(C)cc3)=NC23CCCCC3)cc(OC)c1 | inactive: -28.8% |
| Cc1oc2ccc(O)c(CN3CCOCC3)c2c1C(=O)Nc1ccccc1 | inactive: -2.76% |
| Cc1ccc(CNc2ccc(-c3nc(C(C)C)no3)cc2[N+](=O)[O-])cc1 | inactive: -12.5% |
| Cc1ccc(-n2nc(C(=O)N3CCN(c4cccc(C(F)(F)F)c4)CC3)c(=O)n(C)c2=O)cc1 | inactive: -5.79% |
| O=C(CCSCCc1ccccn1)Nc1cc(F)ccc1F | inactive: -0.329% |
| Cc1ccc(-n2c(=O)c3c(c4cc(C)ccc4n3C)n(CC(=O)Nc3c(C)cccc3C)c2=O)cc1 | inactive: 13% |
| CCOc1ccc(CCNC(=O)Cn2ncc3c([nH]c4ccccc43)c2=O)cc1OCC | inactive: -3.92% |
| O=C(N/N=C/c1ccc([N+](=O)[O-])o1)c1ccc(O)cc1 | inactive: -22.7% |
| Cc1cncn1CCc1nc2c3ccccc3nc(SCC(=O)Nc3ccc(F)cc3)n2n1 | inactive: -10.5% |
| CCc1cccc(NC(=O)C2CCC(CNS(=O)(=O)c3ccc4c(c3)CCCC(=O)N4)CC2)c1 (stereo not given) | inactive: 4.49% |
| CCN(C(=O)Cn1c(=O)nc(-c2ccccc2)c2cc(Cl)ccc21)c1cccc(C)c1 | inactive: -7.41% |
| CCOc1ccccc1CNC(=O)c1cnc2sc(N3CCOCC3)nn2c1=O | inactive: -8.95% |
| Clc1ccccc1-c1nnc(-c2ccccc2CNc2ccc(Br)cc2)o1 | inactive: -4.01% |
| CCOc1ccc(-n2c(SCC(=O)Nc3ccc4c(c3)OCCO4)nc3c([nH]c4ccccc43)c2=O)cc1 | inactive: -6.26% |
| OCCN1CCN(C(c2ccc(Cl)cc2Cl)c2sc3nc(-c4ccco4)nn3c2O)CC1 (stereo not given) | inactive: 20.4% |
| CCc1nc2ccc(C(=O)NCc3ccc(SC)cc3)cc2nc1CC | inactive: -20.7% |
| C#CCSc1nc(-c2ccccc2)c2cc(Cl)ccc2n1 | inactive: -13.1% |
| CCOc1ccccc1NC(=O)CCc1c(C)nc2c(c(C)nn2-c2ccccc2)c1C | inactive: 15.3% |
| COc1ccc(-c2cc(OC(=O)c3ccccc3)c3c(C)oc(C)c3c(=O)c2)cc1OC | inactive: -18.4% |

| SMILES | activation |
| --- | --- |
| COc1cccc(NC(CNS(=O)(=O)c2ccc(Cl)cc2)c2ccccc2)c1 (stereo not given) | active: 77.4% |
| CC(C)c1ccc2c(c1)NC(c1ccncc1)=NC(c1cccs1)=N2 | inactive: -8.21% |
| CCc1cccc(NC(=O)C(NS(=O)(=O)c2ccc3nc(C)sc3c2)C(C)C)c1 (stereo not given) | inactive: -4.28% |
| O=C(CCS(=O)(=O)c1cc(Br)cc2c1N(C(=O)C1CC1)CC2)Nc1ccc(F)cc1 | inactive: 0.789% |
| Cc1ccc(CNC(=O)c2sc3nc(-c4ccccc4)cn3c2C)cc1 | inactive: 25.5% |
| Cc1ccc(Cl)cc1N1CCN(C(=O)c2ccc3c(c2)N(Cc2ccccc2F)C(=O)c2ccccc2S3=O)CC1 (stereo not given) | inactive: 10.2% |
| CCCN1C(=O)c2[nH]nc(-c3cccc(OC)c3)c2C1c1ccccn1 (stereo not given) | inactive: -12.1% |
| CC(C)Cn1c(=O)c2ccccc2n2c(CCC(=O)NCc3ccc(Cl)cc3)nnc12 | inactive: 6.95% |
| O=C(NCc1ccc(F)cc1)c1ccc(Cn2c(SCc3ccc(F)cc3)nc3cccnc32)cc1 | inactive: 33.8% |
| Cc1cc(C)cc(-n2c(C)nc3cc(C(=O)NCc4ccc(F)cc4)ccc32)c1 | inactive: 22.4% |
| Cn1nnc2c(NCc3ccccc3)ncnc21 | inactive: -14.7% |
| Cc1cc(C)cc(NC(=O)c2cnn(-c3ccc(C)c(C)c3)c2C2CCNCC2)c1 | inactive: -8.54% |
| CCOc1ccc(CCNC(=O)c2cn(-c3cccc(OC)c3)c(=O)c3ccccc23)cc1 | inactive: -24.1% |
| O=C(CCC(=O)N1CCSc2ccccc21)NCc1ccccc1Cl | inactive: -32.1% |
| CCC(C)NC(=O)c1ccc2c(c1)N(Cc1ccccc1F)C(=O)c1ccccc1S2=O (stereo not given) | inactive: -23.5% |
| CCCCn1c(=N)c(C(=O)NC2CCCCC2)cc2c(=O)n3cccc(C)c3nc21 | inactive: 4.3% |
| Cn1c(=O)oc2cc(S(=O)(=O)NCCC(=O)NCc3ccc(F)cc3)ccc21 | inactive: 3.34% |
| Cc1cccc(Nc2cc(Cl)nc(SCC(=O)O)n2)c1C | inactive: 16.5% |
| COc1ccc(NC(=O)CN2C(=O)C3(SCC(=O)N3c3ccccc3)c3ccccc32)cc1Cl (stereo not given) | inactive: -4.9% |
| Cc1c(C(=O)N(Cc2cccc(F)c2)C2CCS(=O)(=O)C2)oc2cc(Br)ccc12 (stereo not given) | inactive: -29.4% |
| O=c1cc(-c2ccc(F)cc2)nc(SCc2nc(-c3cccc(C(F)(F)F)c3)no2)[nH]1 | inactive: -3.38% |
| COc1ccc(CNC(=O)c2cccc(N3CCCS3(=O)=O)c2)cc1OC | inactive: 46.3% |

| SMILES | activation |
| --- | --- |
| Cc1ccc(C(C)C)cc2c(C)ccc1-2 | inactive: -4.14% |
| O=C(Cn1ncn2nc(-c3cccs3)cc2c1=O)NCc1ccccc1Cl | inactive: 1.53% |
| CC(C)c1ccc(NC(=O)c2ccc(Cn3nc(N4CCN(c5ccccc5)CC4)ccc3=O)o2)cc1 | inactive: 10.1% |
| CCn1c(=NC(=O)c2ccc(S(=O)(=O)N3CCCC3)cc2)sc2cc(Br)ccc21 | inactive: 7.03% |
| CCOC(=O)c1c(C)c(-c2ccccc2)n(CC(=O)NC2CCCCCC2)c1C | inactive: 5.91% |
| CC(C)=CCC/C(C)=C/CC/C(C)=C/CCC(=O)OC/C=C(\C)CCC=C(C)C | inactive: 10.6% |
| CCc1ccc(N2C(=O)CSC23C(=O)N(Cc2cccc(OC)c2)c2ccccc23)cc1 (stereo not given) | inactive: -20.4% |
| C=CCc1ccc(OCc2ccc(C(=O)Nc3ccc(NC(C)=O)cc3)o2)c(OC)c1 | inactive: -5.83% |
| CCc1oc2ccccc2c1C(=O)c1cc(I)c(O)c(I)c1 | inactive: -0.418% |
| Cc1cccc(Cn2cnc3c(oc4ccccc43)c2=O)c1 | inactive: -9.67% |
| COc1cccc(NC(=O)Cn2cc(C(=O)c3ccc(F)cc3)c(=O)c3cc(OC)ccc32)c1 | inactive: 23.3% |
| CCN1CCN(C(c2ccccc2F)c2c(O)cc(C)n(CCOC)c2=O)CC1 (stereo not given) | inactive: -7.62% |
| N#Cc1ccc(NC2=NS(=O)(=O)c3ccccc32)cc1 | inactive: -1.61% |
| CCC(=O)N1CCc2cc(CNS(=O)(=O)c3ccc(Br)s3)ccc21 | inactive: -2.21% |
| Cc1cc(C)cc(NC(=O)N2CCC(CN3CCc4ccccc4C3)CC2)c1 | inactive: -24% |
| Cc1ccc(NS(=O)(=O)c2ccc3[nH]c4c(c3c2)CCCCCC4)cc1 | active: 102% |
| CCc1c(C)sc2c1CCN(C(=O)Nc1cc(C)ccc1OC)C2c1ccc(F)cc1 (stereo not given) | inactive: -1.28% |
| COc1ccc(-c2c(C)nn3c(N4CCN(c5ccccc5F)CC4)cc(C)nc23)cc1OC | inactive: -5.74% |
| CC1CCCN(S(=O)(=O)c2ccc(N3CCCCS3(=O)=O)cc2)C1 (stereo not given) | inactive: -4.23% |
